{
  "source": "paper PMC6919601",
  "about": "“Identification of Plasmodium dipeptidyl aminopeptidase allosteric inhibitors by high throughput screening” (PLoS ONE, 2019)",
  "note": "The whole screen tested about 110,000 compounds, of which about 230 (0.21%) showed an effect of 50% or more. Some of the results follow.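 Note: 30 min substrate incubation versus DMSO and 10 µM JCP410 controls.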",
  "data": [
    {"molecular_target": "DPAP1 (Plasmodium falciparum, UniProt Q8IIJ9)", "sequence (Q8IIJ9 whole entry, looked up)": "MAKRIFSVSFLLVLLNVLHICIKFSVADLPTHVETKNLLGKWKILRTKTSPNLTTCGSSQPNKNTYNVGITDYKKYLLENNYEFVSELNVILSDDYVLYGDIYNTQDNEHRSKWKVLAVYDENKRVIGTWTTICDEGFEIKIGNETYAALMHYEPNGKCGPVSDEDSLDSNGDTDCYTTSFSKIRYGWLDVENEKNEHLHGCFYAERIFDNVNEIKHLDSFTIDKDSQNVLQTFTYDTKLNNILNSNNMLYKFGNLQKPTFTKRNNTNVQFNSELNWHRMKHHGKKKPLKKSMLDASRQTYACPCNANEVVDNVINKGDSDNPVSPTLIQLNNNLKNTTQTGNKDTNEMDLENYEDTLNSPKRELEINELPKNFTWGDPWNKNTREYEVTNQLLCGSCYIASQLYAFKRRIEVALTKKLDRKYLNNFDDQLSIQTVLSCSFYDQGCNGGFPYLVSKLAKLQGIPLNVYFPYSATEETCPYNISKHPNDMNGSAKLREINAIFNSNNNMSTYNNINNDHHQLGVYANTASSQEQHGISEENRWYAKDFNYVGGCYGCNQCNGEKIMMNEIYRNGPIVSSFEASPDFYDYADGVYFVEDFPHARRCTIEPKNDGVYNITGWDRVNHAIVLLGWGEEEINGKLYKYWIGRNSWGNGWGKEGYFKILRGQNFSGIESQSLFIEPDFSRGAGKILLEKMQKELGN", "test": "primary screen, percent inhibition; read by cleavage of a fluorogenic dipeptide substrate; higher = more effect of the substance", "design": "species or system P. falciparum D10 trophozoite lysates; single well", "units": {"% Inhibition @ 10 uM": "%"}, "values": [
      {"smiles": "COc1ccc(CC(=O)NCc2ccco2)cc1OC", "% Inhibition @ 10 uM": -8.7},
      {"smiles": "CC1=C(C(=O)N(CC2CC=CCC2)CC2CCCO2)C2(CCCCC2)OC1=O", "note": "(stereo not drawn)", "% Inhibition @ 10 uM": -9.55},
      {"smiles": "O=C1CSCc2nc3ccccc3n21", "% Inhibition @ 10 uM": -2.51},
      {"smiles": "NC(=O)C1CCCN(Cc2cccc(Br)c2)C1", "note": "(stereo not drawn)", "% Inhibition @ 10 uM": -2.34},
      {"smiles": "COCCNC(=O)c1cc(Sc2ccc(Cl)cc2)nc2ccccc12", "% Inhibition @ 10 uM": -5.57},
      {"smiles": "Cc1ccc2nc3c(c(N)c2c1)CCN3c1ccccc1", "% Inhibition @ 10 uM": 0.266},
      {"smiles": "CCN(Cc1ccccc1)C(=O)c1ccc(C)c([N+](=O)[O-])c1", "% Inhibition @ 10 uM": 2.46},
      {"smiles": "Cc1nn(Cc2ccccc2Cl)c(C)c1NC(=O)c1ccccc1", "% Inhibition @ 10 uM": -3.98},
      {"smiles": "CC(C)(C)NS(=O)(=O)c1ccc(NS(=O)(=O)c2cc(Cl)ccc2Cl)cc1", "% Inhibition @ 10 uM": -2.85},
      {"smiles": "Cc1nn(C(C)C(=O)NCCCN(Cc2ccccc2)C(C)C)c(=O)c2c1sc1ccccc12", "note": "(stereo not drawn)", "% Inhibition @ 10 uM": 1.61},
      {"smiles": "Cc1cc(C(=O)NC2CC2)n(-c2ccccc2)n1", "% Inhibition @ 10 uM": 1.55},
      {"smiles": "CCC1CCCCN1C(=O)CSc1nc(O)c2cnn(-c3ccc(Cl)cc3)c2n1", "note": "(stereo not drawn)", "% Inhibition @ 10 uM": -3.35},
      {"smiles": "CCCCN(C)CCCNC(=O)CSCc1ccccc1Cl", "% Inhibition @ 10 uM": -2.01},
      {"smiles": "Cc1cc(C)n(C(=O)c2ccc(C)c(Br)c2)n1", "% Inhibition @ 10 uM": -5.51},
      {"smiles": "N#C/C(=C\\c1cccc([N+](=O)[O-])c1)C(N)=O", "% Inhibition @ 10 uM": -2.72},
      {"smiles": "COc1ccc(C2(C(=O)Nc3ccc(Br)cc3)CCOCC2)cc1", "% Inhibition @ 10 uM": -3.04},
      {"smiles": "COc1ccc(-c2noc(CN(C(=O)c3ccc(C(C)(C)C)cc3)C(C)C)n2)cc1", "% Inhibition @ 10 uM": 3.33},
      {"smiles": "Cc1cc(C)nc(NS(=O)(=O)c2ccc(N/C=C3\\CCCC3=O)cc2)n1", "% Inhibition @ 10 uM": -4.68},
      {"smiles": "Cc1ccc(CNC(=O)CCc2nnc3n(CC(C)C)c(=O)c4ccccc4n23)cc1", "% Inhibition @ 10 uM": -0.692},
      {"smiles": "C=CCc1ccccc1Oc1cc(OC)nc(N)n1", "% Inhibition @ 10 uM": 1.9},
      {"smiles": "Cc1cc(C)c2c(n1)SCC(=O)N2CCCC(=O)NCc1ccc2c(c1)OCO2", "% Inhibition @ 10 uM": -7.93},
      {"smiles": "CN(Cc1ccccc1)C(=O)C1c2ccccc2C(=O)N(C)C1c1c[nH]c2ccccc12", "note": "(stereo not drawn)", "% Inhibition @ 10 uM": 13.8},
      {"smiles": "CC(=O)c1ccc(NC(=O)CN(C(C)=O)c2ccccc2)cc1", "% Inhibition @ 10 uM": 2.27},
      {"smiles": "CCOC(=O)/C(C#N)=C/c1cc2c(cc1[N+](=O)[O-])OCO2", "% Inhibition @ 10 uM": -4.02},
      {"smiles": "COC(=O)c1ccc(-c2ccccc2)[nH]1", "% Inhibition @ 10 uM": -3.53},
      {"smiles": "COc1ccc(C(=O)N(Cc2ccc(C(C)(C)C)cc2)Cc2ccco2)cc1", "% Inhibition @ 10 uM": -1.07},
      {"smiles": "N#CC1=C(N)N(c2cccc(C(F)(F)F)c2)C2=C(C(=O)CCC2)C1c1cccs1", "note": "(stereo not drawn)", "% Inhibition @ 10 uM": -0.305},
      {"smiles": "O=C(NCc1ccco1)c1ccccc1F", "% Inhibition @ 10 uM": 3.16},
      {"smiles": "NC(=O)c1c(NC(=O)Nc2ccccc2)sc2c1CCCC2", "% Inhibition @ 10 uM": 2.27},
      {"smiles": "CCCC1=C(C(=O)OCC)C(c2cccc(Cl)c2Cl)C(C#N)=C(N)O1", "note": "(stereo not drawn)", "% Inhibition @ 10 uM": -1.38},
      {"smiles": "CCOc1ccc(-n2cc(-c3ccccc3)c3c(NCCCOC)ncnc32)cc1", "% Inhibition @ 10 uM": -3.74},
      {"smiles": "CCOc1ccccc1CNC(=O)NCc1noc2ccccc12", "% Inhibition @ 10 uM": -2.55},
      {"smiles": "O=[N+]([O-])c1ccc(S(=O)(=O)Nc2ccc(F)cc2)cc1", "% Inhibition @ 10 uM": 1.91},
      {"smiles": "CCOc1ccc2nc(NC(=O)C3CCN(S(=O)(=O)c4c[nH]cn4)CC3)sc2c1", "% Inhibition @ 10 uM": 2.9},
      {"smiles": "CC(COc1ccc2c(c1)OCO2)NC(=O)c1cnccn1", "note": "(stereo not drawn)", "% Inhibition @ 10 uM": -2.84},
      {"smiles": "COc1cc(CNC2CCCCC2OC)cc(OC)c1OC", "note": "(stereo not drawn)", "% Inhibition @ 10 uM": 1.88},
      {"smiles": "C(=C\\c1ccccc1)/CN1CCN(CCCc2ccccc2)CC1", "% Inhibition @ 10 uM": 2.7},
      {"smiles": "CC1CC(Nc2ccccc2)c2ccccc2N1C(=O)c1ccco1", "note": "(stereo not drawn)", "% Inhibition @ 10 uM": -5.96},
      {"smiles": "N#CCC(=O)/N=C/c1ccc(Cl)cc1Cl", "% Inhibition @ 10 uM": 1.12},
      {"smiles": "CCOC(=O)N1CCN(C2CCC(C(C)(C)C)CC2)CC1", "note": "(stereo not drawn)", "% Inhibition @ 10 uM": -1.81},
      {"smiles": "CCOC(=O)c1c(C)[nH]c(C)c1S(=O)(=O)N1CCC(C(=O)NC2CCCCCC2)CC1", "% Inhibition @ 10 uM": -0.695},
      {"smiles": "COc1ccc(N2CCN(C3CC(=O)N(c4ccc5c(c4)OCCO5)C3=O)CC2)cc1", "note": "(stereo not drawn)", "% Inhibition @ 10 uM": -2.67},
      {"smiles": "O=C1CN(S(=O)(=O)c2ccccc2)CC1NC(=O)[C@H](CS(=O)(=O)Cc1ccccc1)NC(=O)N1CCOCC1", "note": "(stereo partly drawn)", "% Inhibition @ 10 uM": 3.19},
      {"smiles": "CCc1ccc(OCC(O)CNC2CC(C)(C)NC(C)(C)C2)cc1", "note": "(stereo not drawn)", "% Inhibition @ 10 uM": -3.93},
      {"smiles": "Cc1ccc(C(=O)Nc2ccc(F)cc2F)cc1", "% Inhibition @ 10 uM": 3.53},
      {"smiles": "C1=CCC(CN2CCCCC2c2cccnc2)CC1", "note": "(stereo not drawn)", "% Inhibition @ 10 uM": -3.27},
      {"smiles": "Cc1c(C(=O)NCC2COc3ccccc3O2)oc2ccc(S(=O)(=O)N3CC(C)CC(C)C3)cc12", "note": "(stereo not drawn)", "% Inhibition @ 10 uM": 1.14},
      {"smiles": "Cc1cccc(NS(=O)(=O)c2ccc(-c3ccccc3)cc2)c1", "% Inhibition @ 10 uM": -0.507},
      {"smiles": "Cc1ccc(CCNC(=O)C2CCCN(c3nnc(-n4cccc4)s3)C2)cc1", "note": "(stereo not drawn)", "% Inhibition @ 10 uM": 1.15},
      {"smiles": "CCOC(=O)C1CCN(Cc2ccc(OC)c(C)c2C)CC1", "% Inhibition @ 10 uM": -0.197},
      {"smiles": "Cc1ccsc1CCN1CSC2=C(C#N)C(c3ccc(Cl)cc3)CC(=O)N2C1", "note": "(stereo not drawn)", "% Inhibition @ 10 uM": 51.6}
    ]}
  ]
}
